Experimental data reported in patent US5491074A, “Association peptides” (Affymax Technologies NV, priority 1993, dated 1996).
Not every detail of the peptide structures is certain; ends, links or a residue may be inferred. Residues, ends and D or L forms follow the SMILES beside them. No end group written: not given here.

Legend:
Assay type in all cases: physicochemical
[1] = Dimer formation of peptides with carboxy-terminal additions on Bio-Gel P-4 column (Example 2)
[2] = Dimer formation of peptides on Bio-Gel P-4 molecular sieve column (Example 1)
[3] = Precipitation of peptide from solution; settings: peptide solution prepared for S-Link column loading
[4] = Dimer formation in 8M urea and 6M guanidine-HCl on P-4 columns
[5] = 0.1 M NaCl (buffer A: 0.1M NaCl, 10 mM Tris, pH=7.5)
[6] = 0.1 M NaCl, pH = 2 (buffer C: 2% phosphoric acid)
[7] = 1 M Ammonium Sulfate (buffer B: 10 mM Tris, pH=7.5)

Row | Compound | Elution profile ([1]; 0.1 M NaCl, pH = 7.5) | Elution profile ([1]; 1 M Ammonium Sulfate) | Calculated Molecular Weight [2, 5] | Calculated Molecular Weight [2, 7] | dimer / monomer (in parentheses) ([1]; 0.1 M NaCl, pH = 7.5) | dimer / monomer (in parentheses) ([1]; 1 M Ammonium Sulfate) | other results
1 | SKVILF [SKVILF] | 22.5 | 29 |  |  |  |  | calculated molecular weight (in parentheses) ([1]; 0.1 M NaCl, pH = 7.5): 1118; calculated molecular weight (in parentheses) ([1]; 1 M Ammonium Sulfate): 1002
2 | EPPGGSKVILF [EPPGGSKVILF] |  |  | 1449 | 604 |  |  | Calculated Molecular Weight [2, 6]: 767
3 | SKVILFE-NH2 [SKVILFE(amide)] | 21 | 29 |  |  | dimer | dimer | 
4 | FGSSGWVLPSPPGGSKVILF |  |  | 2123 | 1181 |  |  | Calculated Molecular Weight [2, 6]: 1124
5 | LRRASLGGPPGGSKVILF [LRRASLGGPPGGSKVILF] |  |  | 1825 | 1825 |  |  | Calculated Molecular Weight [2, 6]: 966
6 | RQFKVVT [RQFKVVT, reference compound] |  |  | 913 | 1050 |  |  | dimerization [2]: does not dimerize
7 | CSKVILF [CSKVILF] |  |  |  |  |  |  | time to precipitation from solution [3]: 3 to 5 min
8 | VSIKFL [VSIKFL(scrambled), VSIKFL, reference compound] | 29 |  |  |  | monomer |  | 
9 | CC[C@H](C)[C@H](NC(=O)[C@@H](NC(=O)[C@H](CCCCN)NC(=O)[C@H](CO)NC(=O)CNC(=O)CNC(=O)[C@@H]1CCCN1C(=O)[C@@H]1CCCN1C(=O)[C@@H]1CCC(=O)N1)C(C)C)C(=O)N[C@@H](CC(C)C)C(=O)N[C@@H](Cc1ccccc1)C(=O)O [HA peptide, reference compound] (HELM PEPTIDE1{[Glp].P.P.G.G.S.K.V.I.L.F}$$$$V2.0) |  |  |  |  |  |  | elution form on P-4 column ([4]; 6M guanidine-HCl): eluted as the dimers; elution form on P-4 column ([4]; up to 8M Urea): eluted as the dimers
10 | SKVILFEGGSAS [SKVILFEGGSAS] |  |  | 1722 | 1662 |  |  | Calculated Molecular Weight [2, 6]: 646; dimer formation ([2]; 0.1 M NaCl, pH = 7.5): high molecular weight dimer is present; dimer formation ([2]; 1M ammonium sulfate / 10 mM Tris, pH 7.5): high molecular weight dimer is present
11 | SKVILFN-NH2 [SKVILFN(amide)] | 28 | 38 |  |  | monomer | monomer | 
12 | SKVILFR-NH2 [SKVILFR(amide)] | 34 | 40 |  |  | monomer | monomer | 
13 | SKVILF-NH2 [SKVILF (amide)] | 33.5 | 43 |  |  |  |  | calculated molecular weight (in parentheses) ([1]; 0.1 M NaCl, pH = 7.5): 592; calculated molecular weight (in parentheses) ([1]; 1 M Ammonium Sulfate): 572
14 | SKVILFD-NH2 [SKVILFD(amide)] | 21 | 30 |  |  | dimer | dimer | 
15 | SKVILFK-NH2 [SKVILFK(amide)] | 27 | 36 |  |  | monomer | monomer | 
